The other results are listed elsewhere or left out.
Tests used:
Test in all cases: glycan array binding signal (z-score within array); higher = stronger binding
Conditions in all cases: glycan notation: IUPAC condensed, linker removed
[1] = molecular target: Gal(a1-3)[Gal(a1-4)]Gal(b1-4)GlcNAc
Summary of the method: (§1)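 Negative Z-scores can be read as non-binding. The Z-score is calculated within each array and then averaged across arrays of one protein sequence at different concentrations or buffers and across linkers. Arrays, 3228 in all, were curated from the Consortium for Functional Glycomics database and kept only where the protein sequence was available.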

[2] = molecular target: Gal(a1-4)Gal(b1-3)GlcNAc(b1-2)Man(a1-3)[Gal(a1-4)Gal(b1-3)GlcNAc(b1-2)Man(a1-6)]Man(b1-4)GlcNAc(b1-4)GlcNAc
Summary of the method: as §1

Gal(a1-4)Gal(b1-4)Glc = molecular target: Gal(a1-4)Gal(b1-4)Glc
Summary of the method: as §1

Gal(a1-4)Gal(b1-4)GlcNAc = molecular target: Gal(a1-4)Gal(b1-4)GlcNAc
Summary of the method: as §1

[3] = molecular target: Gal(a1-4)Gal(b1-4)GlcNAc(b1-2)Man(a1-3)[Gal(a1-4)Gal(b1-4)GlcNAc(b1-2)Man(a1-6)]Man(b1-4)GlcNAc(b1-4)GlcNAc
Summary of the method: as §1

[4] = molecular target: Gal(a1-4)Gal(b1-4)GlcNAc(b1-3)Gal(b1-4)Glc
Summary of the method: as §1

Gal(a1-4)GlcNAc = molecular target: Gal(a1-4)GlcNAc
Summary of the method: as §1

Gal(a1-6)Glc = molecular target: Gal(a1-6)Glc
Summary of the method: as §1

Gal(b1-2)Gal = molecular target: Gal(b1-2)Gal
Summary of the method: as §1

Gal(b1-3)Gal = molecular target: Gal(b1-3)Gal
Summary of the method: as §1

Gal(b1-3)Gal(b1-4)GlcNAc = molecular target: Gal(b1-3)Gal(b1-4)GlcNAc
Summary of the method: as §1

Gal(b1-3)GalNAc = molecular target: Gal(b1-3)GalNAc
Summary of the method: as §1

[5] = molecular target: Gal(b1-3)GalNAc(a1-3)[Fuc(a1-2)]Gal(b1-4)Glc
Summary of the method: as §1

[6] = molecular target: Gal(b1-3)GalNAc(a1-3)[Fuc(a1-2)]Gal(b1-4)GlcNAc
Summary of the method: as §1

Gal(b1-3)GalNAc(b1-3)Gal = molecular target: Gal(b1-3)GalNAc(b1-3)Gal
Summary of the method: as §1

[7] = molecular target: Gal(b1-3)GalNAc(b1-3)Gal(a1-4)Gal(b1-4)Glc
Summary of the method: as §1

[8] = molecular target: Gal(b1-3)GalNAc(b1-4)Gal(b1-4)Glc
Summary of the method: as §1

[9] = molecular target: Gal(b1-3)GalNAc(b1-4)[Neu5Ac(a2-3)]Gal(b1-4)Glc
Summary of the method: as §1

Gal(b1-3)GlcNAc = molecular target: Gal(b1-3)GlcNAc
Summary of the method: as §1

[10] = molecular target: Gal(b1-3)GlcNAc(a1-3)Gal(b1-4)GlcNAc
Summary of the method: as §1

[11] = molecular target: Gal(b1-3)GlcNAc(a1-6)Gal(b1-4)GlcNAc
Summary of the method: as §1

Gal(b1-3)GlcNAc(b1-2)Man = molecular target: Gal(b1-3)GlcNAc(b1-2)Man
Summary of the method: as §1

[12] = molecular target: Gal(b1-3)GlcNAc(b1-2)Man(a1-3)[Gal(b1-3)GlcNAc(b1-2)Man(a1-6)]Man(b1-4)GlcNAc(b1-4)GlcNAc
Summary of the method: as §1

[13] = molecular target: Gal(b1-3)GlcNAc(b1-2)Man(a1-3)[Gal(b1-3)GlcNAc(b1-2)Man(a1-6)]Man(b1-4)GlcNAc(b1-4)[Fuc(a1-6)]GlcNAc
Summary of the method: as §1

[14] = molecular target: Gal(b1-3)GlcNAc(b1-2)Man(a1-3)[GlcNAc(b1-4)][Gal(b1-3)GlcNAc(b1-2)Man(a1-6)]Man(b1-4)GlcNAc(b1-4)GlcNAc
Summary of the method: as §1

[15] = molecular target: Gal(b1-3)GlcNAc(b1-2)[Gal(b1-3)GlcNAc(b1-6)]Man(a1-6)[Gal(b1-3)GlcNAc(b1-2)Man(a1-3)]Man(b1-4)GlcNAc(b1-4)GlcNAc
Summary of the method: as §1

[16] = molecular target: Gal(b1-3)GlcNAc(b1-3)Gal(b1-3)GlcNAc
Summary of the method: as §1

[17] = molecular target: Gal(b1-3)GlcNAc(b1-3)Gal(b1-4)Glc
Summary of the method: as §1

[18] = molecular target: Gal(b1-3)GlcNAc(b1-3)Gal(b1-4)GlcNAc
Summary of the method: as §1

[19] = molecular target: Gal(b1-3)GlcNAc(b1-3)Gal(b1-4)GlcNAc(b1-2)Man(a1-3)[Gal(b1-3)GlcNAc(b1-3)Gal(b1-4)GlcNAc(b1-2)Man(a1-6)]Man(b1-4)GlcNAc(b1-4)GlcNAc
Summary of the method: as §1

[20] = molecular target: Gal(b1-3)GlcNAc(b1-3)Gal(b1-4)GlcNAc(b1-2)[Gal(b1-3)GlcNAc(b1-3)Gal(b1-4)GlcNAc(b1-6)]Man(a1-6)[Gal(b1-3)GlcNAc(b1-3)Gal(b1-4)GlcNAc(b1-2)Man(a1-3)]Man(b1-4)GlcNAc(b1-4)[Fuc(a1-6)]GlcNAc
Summary of the method: as §1

[21] = molecular target: Gal(b1-3)GlcNAc(b1-3)Gal(b1-4)GlcNAc(b1-3)Gal(b1-4)GlcNAc(b1-2)[Gal(b1-3)GlcNAc(b1-3)Gal(b1-4)GlcNAc(b1-3)Gal(b1-4)GlcNAc(b1-6)]Man(a1-6)[Gal(b1-3)GlcNAc(b1-3)Gal(b1-4)GlcNAc(b1-3)Gal(b1-4)GlcNAc(b1-2)Man(a1-3)]Man(b1-4)GlcNAc(b1-4)[Fuc(a1-6)]GlcNAc
Summary of the method: as §1

[22] = molecular target: Gal(b1-3)GlcNAc(b1-3)Gal(b1-4)GlcNAc(b1-6)[Gal(b1-3)GlcNAc(b1-3)]Gal(b1-4)Glc
Summary of the method: as §1

[23] = molecular target: Gal(b1-3)GlcNAc(b1-3)Gal(b1-4)[Fuc(a1-3)]GlcNAc
Summary of the method: as §1

[24] = molecular target: Gal(b1-3)GlcNAc(b1-3)Gal(b1-4)[Fuc(a1-3)]GlcNAc(b1-6)[Gal(b1-3)GlcNAc(b1-3)]Gal(b1-4)Glc
Summary of the method: as §1

[25] = molecular target: Gal(b1-3)GlcNAc(b1-3)GalNAc
Summary of the method: as §1

[26] = molecular target: Gal(b1-3)GlcNAc(b1-6)Gal(b1-4)GlcNAc
Summary of the method: as §1

[27] = molecular target: Gal(b1-3)GlcNAc(b1-6)GalNAc
Summary of the method: as §1

B1: Na-CTL-1 (Necator americanus) (protein)
chain: MQRSFLLLLVVLAGAWAVNTTIPLKLMGGFTPMKYQCVGRVSDIWADVLFLIESSDMITKSGFRQVIAFITATTKKMTIGQDEKQTRVGFITYGEEAKLIYDLDHWRSTEKLSDLVQKIPYVKSSGTNIAAAIALANKVFNSPTHRPNVPKVMVIVANGLKKGSQNPIPVATAFKDFGGIIITIEYTQYDNIQVPILKKIASEGYNIRSNDEDFSVRTLTNMLLQANCFCPDHYVPFRVNNPEFGCFVTAKIPSMWRDAAEMCRAVEEGKLVKVENEEKAAFIMKLVGPKKEAWIGLRYYGNKFQWTDGTKLNADDFNLWPEDIKELNGPHCVSMYQDQKDKKYYWRAGKCLEDMRYVCEVQPCSASNYCSEPVFMYRQKHRALLPAPPPPPN
[1]
  glycan array binding signal (z-score): 1.4
[2]
  glycan array binding signal (z-score): -0.549
Gal(a1-4)Gal(b1-4)Glc
  glycan array binding signal (z-score): 0.048
Gal(a1-4)Gal(b1-4)GlcNAc
  glycan array binding signal (z-score): 0.656
[3]
  glycan array binding signal (z-score): 0.562
[4]
  glycan array binding signal (z-score): -0.215
Gal(a1-4)GlcNAc
  glycan array binding signal (z-score): -0.289
Gal(a1-6)Glc
  glycan array binding signal (z-score): -0.265
Gal(b1-2)Gal
  glycan array binding signal (z-score): -0.582
Gal(b1-3)Gal
  glycan array binding signal (z-score): -0.126
Gal(b1-3)Gal(b1-4)GlcNAc
  glycan array binding signal (z-score): 0.592
Gal(b1-3)GalNAc
  glycan array binding signal (z-score): -0.022
[5]
  glycan array binding signal (z-score): -0.415
[6]
  glycan array binding signal (z-score): -0.408
Gal(b1-3)GalNAc(b1-3)Gal
  glycan array binding signal (z-score): -0.36
[7]
  glycan array binding signal (z-score): -0.55
[8]
  glycan array binding signal (z-score): -0.243
[9]
  glycan array binding signal (z-score): -0.244
Gal(b1-3)GlcNAc
  glycan array binding signal (z-score): -0.455
[10]
  glycan array binding signal (z-score): -0.359
[11]
  glycan array binding signal (z-score): 0.138
Gal(b1-3)GlcNAc(b1-2)Man
  glycan array binding signal (z-score): -0.258
[12]
  glycan array binding signal (z-score): -0.287
[13]
  glycan array binding signal (z-score): -0.447
[14]
  glycan array binding signal (z-score): 0.605
[15]
  glycan array binding signal (z-score): -0.149
[16]
  glycan array binding signal (z-score): -0.262
[17]
  glycan array binding signal (z-score): 0.182
[18]
  glycan array binding signal (z-score): -0.383
[19]
  glycan array binding signal (z-score): -0.217
[20]
  glycan array binding signal (z-score): -0.231
[21]
  glycan array binding signal (z-score): 1.66
[22]
  glycan array binding signal (z-score): -0.326
[23]
  glycan array binding signal (z-score): -0.53
[24]
  glycan array binding signal (z-score): -0.259
[25]
  glycan array binding signal (z-score): -0.531
[26]
  glycan array binding signal (z-score): 0.325
[27]
  glycan array binding signal (z-score): -0.394

From the supplement of paper PMC8728848
